# In PubChem BioAssay AID1030 (National Center for Advancing Translational Sciences (NCATS), 2008):
# “And” between values parts separate entries of the source, which are not always exact repeats. Identical values can stand only once. The campaign covered roughly 220,000 compounds. About 16,000 (7.3%) were called active. Inconclusive means that the source gave no clear call. Such entries were picked first, then a sample of the others. Calls follow the shape of the dose curve; as a rule, active = well fitted inhibition curve with a large enough effect (not every such curve was filed as active); inconclusive = small, poorly fitted or top-dose-only effect, or another doubt; inactive = no such curve, though single readings can be large or run the other way. Where the call is inconclusive, the potency comes from a doubtful curve fit.
# Target: Aldehyde dehydrogenase 1A1 (Homo sapiens) (UniProt P00352)
# Chain of UniProt P00352 (P00352 whole entry, looked up): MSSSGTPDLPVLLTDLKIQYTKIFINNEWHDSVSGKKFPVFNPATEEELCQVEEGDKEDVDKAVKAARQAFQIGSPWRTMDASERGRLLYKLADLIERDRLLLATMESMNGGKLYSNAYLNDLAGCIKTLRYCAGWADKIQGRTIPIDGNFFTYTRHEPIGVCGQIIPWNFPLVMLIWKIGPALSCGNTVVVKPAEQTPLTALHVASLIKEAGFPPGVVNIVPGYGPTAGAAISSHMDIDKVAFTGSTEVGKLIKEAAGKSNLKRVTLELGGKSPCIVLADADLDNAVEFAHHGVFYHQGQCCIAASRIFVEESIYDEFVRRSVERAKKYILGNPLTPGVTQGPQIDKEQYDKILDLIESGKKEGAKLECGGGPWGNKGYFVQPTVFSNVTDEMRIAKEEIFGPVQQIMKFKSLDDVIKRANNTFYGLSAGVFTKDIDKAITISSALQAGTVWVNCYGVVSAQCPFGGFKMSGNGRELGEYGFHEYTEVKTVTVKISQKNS
# Experiment: qHTS Assay for Inhibitors of Aldehyde Dehydrogenase 1 (ALDH1A1);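 as to activity, negative = inhibition: plate controls were no enzyme wells and a reference inhibitor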
# Conditions: Purified ALDH1A1, NADH fluorescence, propionaldehyde substrate; series mostly up to 75.3 µM; activity, negative = inhibition: at the top concentration
# Potency is read from the fitted curve at half-maximal effect; tags tell the direction and shape of the fitted curve.
Structure (SMILES),Potency,"activity, negative = inhibition"
O=C(Nc1nc2nc(-c3ccccc3)cc(=O)n2[nH]1)c1ccccc1,"inconclusive: 39.8 µM [inhibitor, single point]",
CCOC(=O)c1sc(/N=C/c2c(O)n(-c3ccccc3)c(=O)[nH]c2=O)c(C#N)c1C,active: 11.2 µM,
Cc1cc(OC(=O)c2ccco2)c2c3c(c(=O)oc2c1)CCC3,active: 10 µM,
Cc1cccc(C(=O)Nc2ccc(Cl)cc2C(=O)c2ccccc2)c1,,inactive: -7.42%
O=C(c1cc2c(s1)CCCC2)N1CCC2(CC1)OCCO2,active: 11.2 µM,
Oc1ccc2c3c1O[C@H]1c4oc5ccccc5c4C[C@]4(O)[C@H](C2)N(CC2CC2)CC[C@@]314,,inactive: 3.29%
CC(C)CNC(=O)c1c(N)n(Cc2ccco2)c2nc3ccccc3nc12,"inconclusive: 28.2 µM [inhibitor, partial curve]",
CCn1c(N)c(C(=O)NC)sc1=S,active: 2.82 µM,
CCSC(=O)Cl,"inconclusive: 35.5 µM [inhibitor, single point]",
O=[N+]([O-])c1cccc(CN2CCN(Cc3ccc(Br)cc3)CC2)c1,"inconclusive: 17.8 µM [inhibitor, partial curve]",
COc1ccccc1CCNCc1cc2c(cc1[N+](=O)[O-])OCO2,"inconclusive: 17.8 µM [inhibitor, partial curve]",
c1ccc2c(CCNCc3ccc4c(c3)OCO4)c[nH]c2c1,,inactive: 1.59%
CN1C(=O)C(=Cc2ccc(N3CCOCC3)o2)C(=O)N(C)C1=O,,inactive: 6.19%
[O-]/[N+](=N\O)c1ccccc1,active: 10 µM,
COC(=O)c1c(C)n(Cc2ccccc2)c2ccc(O)cc12,"inconclusive: 39.8 µM [inhibitor, single point]",
COc1ccccc1Cn1c(SCC(=O)C(C)(C)C)nc2cc(C(=O)N3CCC4(CC3)OCCO4)ccc2c1=O,"inconclusive: 31.6 µM [inhibitor, single point]",
CC[C@@H]1[C@@H]2Cc3ccc(O)cc3[C@@]1(CC)CCN2C,,inactive: 6.06% [at 13.5 µM]
Cc1cccc(N2C(=O)NC(=O)/C(=C\c3cc(C)n(-c4sc5c(c4C#N)CCCC5)c3C)C2=O)c1C,active: 0.251 µM,
C[C@@]12CCC3C(CCC4=CC(=O)CC[C@]43C)C1CCC2O (stereo partly drawn),,inactive: -4.05%
Nc1ccc2c3c(cccc13)CC2,"inconclusive: 28.2 µM [inhibitor, partial curve]",
COc1ccc(C(=O)C2CN(C)CC2c2ccc(Cl)cc2)cc1 (stereo not drawn),"inconclusive: 39.8 µM [inhibitor, single point]",
COC(=O)CSC1=NP(=S)(SCC(=O)OC)N2CCCC2=C1C#N (stereo not drawn),"inconclusive: 25.1 µM [inhibitor, single point]",
O=C(c1ccc(N2CCCCCC2)c([N+](=O)[O-])c1)N1CCC2(CC1)OCCO2,active: 11.2 µM,
CN1CCN(c2ccc(C(N)=O)cc2N)CC1,"inconclusive: 39.8 µM [inhibitor, single point]",
COC(=O)CN1C(=O)C2(C(C(=O)OC)=C(N)Oc3ccccc32)C2=C1CC(C)(C)CC2=O (stereo not drawn),active: 1 µM,

Structure (SMILES),Potency,"activity, negative = inhibition"
CCCCc1nc(N2CCNCC2)c(C#N)c2c1CSC(C)(C)C2,"inconclusive: 25.1 µM [inhibitor, partial curve]",
COc1cc(C)c(CN2CCN(c3ccccc3)CC2)cc1C,,inactive: 1.17%
N/C(=N\N=C/c1ccc(-c2ccc(O)c(C(=O)O)c2)o1)N[N+](=O)[O-],"inconclusive: 39.8 µM [inhibitor, single point]",
CSCCC(N=Cc1c(O)n(-c2ccc(Cl)cc2)c(=O)[nH]c1=O)C(=O)OC(C)(C)C (stereo not drawn),"inconclusive: 39.8 µM [inhibitor, single point]",
Nc1c(Br)cc([N+](=O)[O-])cc1[N+](=O)[O-],active: 25.1 µM,
CC12CN3CC(C)(CN(C1)C3c1cccs1)C2=O (stereo not drawn),,inactive: 7.93%
CCCOc1ccc(N2C(=O)CC(N3CC=C(c4ccccc4)CC3)C2=O)cc1 (stereo not drawn),active: 10 µM,
CCC(C=C[C@@H]1OC(=O)C=C[C@H]1C)=C[C@H](C)CC=CC(C)=C[C@@H](C)C(=O)[C@@H](C)[C@H](O)[C@@H](C)CC(C)=CC(=O)O,active: 0.224 µM,
Cc1c(C(c2ccc(F)cc2)c2c(O)c3ccccc3oc2=O)c(=O)n(-c2ccccc2)n1C (stereo not drawn),"inconclusive: 39.8 µM [inhibitor, single point]",
Cc1ccc(-n2nc(C)c3c2NC(=O)CSC3c2ccc3c(c2)OCO3)cc1 (stereo not drawn),"inconclusive: 39.8 µM [inhibitor, single point]",
O=C(O)CN1CCN(CC(=O)O)CC(=O)[O][Hg][O]C(=O)C1,active: 1.58 µM,
COc1cc(/C=C2\C(=O)NC(=O)N(CCc3ccc(F)cc3)C2=O)ccc1O,active: 12.6 µM,
C=CCN1C(=O)/C(=C/c2cccs2)C(=O)NC1=S,active: 8.91 µM,
C[N+]1(CC(=O)OCCCc2ccccc2)CCCCC1,"inconclusive: 37.7 µM [inhibitor, single point]",
Cc1ccc(S(=O)(=O)Cc2ccc(C(=O)N3CCC4(CC3)OCCO4)o2)cc1,"inconclusive: 39.8 µM [inhibitor, single point]",
CN(C)CCOC(=O)c1cn(Cc2ccccc2)c2ccccc12,"inconclusive: 39.8 µM [inhibitor, single point]",
CCc1ccc(N2NC(=O)/C(=C/C=C/c3ccco3)C2=O)cc1,active: 3.16 µM,
CN[C@@H](Cc1c[nH]c2ccccc12)C(=O)O,,inactive: -5.21%
CCOc1ccc(N2C(=O)/C(=C\c3cccs3)C(=O)NC2=S)cc1,active: 17.8 µM,
O=C1NC(=O)N(c2ccc(Br)cc2)C(=O)/C1=C/c1ccsc1,"inconclusive: 39.8 µM [inhibitor, single point]",
CCOP(=O)(NC(C)C)Oc1ccc(SC)c(C)c1 (stereo not drawn),"inconclusive: 28.2 µM [inhibitor, partial curve]",
Clc1cc(Cl)c(Cl)c(Cl)c1,"inconclusive: 12.6 µM [inhibitor, partial curve, poor fit]",
COc1ccc(C(=O)C2CCCN(C3CSCCSC3)C2)c(C)c1 (stereo not drawn),active: 14.1 µM,
CC1CCCC(C)N1/N=C/c1c[nH]c2ccc(Br)cc12 (stereo not drawn),"inconclusive: 39.8 µM [inhibitor, single point]",
CCOC(=O)C(O)(c1ccc(NC(=S)NC(=O)c2ccc(Cl)cc2Cl)c(C)c1)C(F)(F)F (stereo not drawn),active: 17.8 µM,

Structure (SMILES),Potency,"activity, negative = inhibition"
O=C(O)C(Br)CBr (stereo not drawn),"inconclusive: 31.6 µM [inhibitor, single point]",
CN(C)CCN=Cc1c(O)n(Cc2ccco2)c(=O)[nH]c1=O,,inactive: -0.0652%
N[C@H](Cc1ccc2oc3cc(=O)c4ccccc4c-3nc2c1)C(=O)O,"inconclusive: 5.01 µM [inhibitor, single point]",
CCC(C)C(=O)OC1C[C@@]2(C)C(c3ccoc3)OC(=O)CC23OC2(C)OC34C(OC(=O)C(C)C)[C@]3(O)C(OC(=O)C5(C)OC5C)[C@]5(C)CC3(O)[C@](C)(C5CC(=O)OC)C14O2 (stereo partly drawn),,inactive: 1.33%
COCCOC(=O)c1c(C)n(C)c2ccc(OC(=O)N3CCOCC3)cc12,"inconclusive: 44.7 µM [inhibitor, single point]",
CCN(CC)CC(O)c1ccc(C2CCCC2)cc1 (stereo not drawn),"inconclusive: 28.2 µM [inhibitor, single point]",
Cc1ccc(C2N(c3ccccn3)C(=O)C3CCCN32)o1 (stereo not drawn),"inconclusive: 31.6 µM [inhibitor, single point]",
Nc1ccc(-c2ccc(N)cc2)cc1,"inconclusive: 35.5 µM [inhibitor, partial curve]",
O=C1NC(=O)C(=Cc2cc([N+](=O)[O-])ccc2N2CCCCC2)C(=O)N1,,inactive: -7.64%
CC[C@]1(c2cccc(O)c2)CCCCN(C)C1,,inactive: -3.36% [at 20.9 µM]
CCN(C(=O)CN1CC=C(c2ccccc2)CC1)c1c(N)n(Cc2ccccc2)c(=O)[nH]c1=O,,inactive: 3.85%
O=C(N/N=C1/CN2CCC1CC2)c1cccc(O)c1,"inconclusive: 20 µM [inhibitor, single point]",
COc1ccc(NC(=S)NCCN2CCOCC2)cc1,active: 1.26 µM,
CN1[C@@H]2CC[C@H]1CC(OC(c1ccc(F)cc1)c1ccc(F)cc1)C2 (stereo partly drawn),,inactive: 10.6%
Cc1cccc(-n2c(C)nc3cc(C(=O)N4CCC5(CC4)OCCO5)ccc32)c1,"inconclusive: 39.8 µM [inhibitor, single point]",
Nc1c(C(=O)NCc2ccco2)c2nc3ccccc3nc2n1Cc1ccccc1,"inconclusive: 25.1 µM [inhibitor, partial curve]",
CCOC(=O)c1c(/N=C/c2c(O)n(-c3cccc(C)c3)c(=O)[nH]c2=O)sc2c1CCCC2,"inconclusive: 20 µM [inhibitor, partial curve, poor fit]",
Cc1ccc2c(c1)C1CN(C)CCC1N2S(=O)(=O)c1ccccc1 (stereo not drawn),"inconclusive: 39.8 µM [inhibitor, single point]",
O=C1CC(N2CCC(n3c(=O)[nH]c4ccccc43)CC2)C(=O)N1Cc1ccccc1 (stereo not drawn),"inconclusive: 39.8 µM [inhibitor, single point]",
COc1cccc(/C=N/NC(=O)c2c(C)nc3ccc(Br)cn23)c1,"inconclusive: 39.8 µM [inhibitor, single point]",
CN1CCCC2(CCN(C(=O)c3csnn3)CC2)C1,"inconclusive: 39.8 µM [inhibitor, single point]",
CCN(CC)C(=O)c1ccc2c(c1)C1C(Cl)C(Sc3ccccc3[N+](=O)[O-])CC1C(C(=O)O)N2 (stereo not drawn),active: 25.1 µM,
O=[N+]([O-])c1ccc(O)c([N+](=O)[O-])c1,"inconclusive: 31.6 µM [inhibitor, single point] and inconclusive: 25.1 µM [inhibitor, single point]",
